# Results: PMC4336329 (PLoS ONE, 2015)
# Screen size: about 310,000 compounds; about 14,000 (4.5%) showed an effect of 50% or more. Effects have a minus sign here. The list shows a part of the results.
# Biological target: human ether-à-go-go-related gene (hERG) potassium channel (human, UniProt Q12809)
# Assay: primary screen, population patch clamp on CHO cells stably expressing hERG
# 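Also: peak tail current of the secondary pulse compared with the same well before compound.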
# Chain of human ether-à-go-go-related gene (hERG) potassium channel (Q12809 whole entry, looked up): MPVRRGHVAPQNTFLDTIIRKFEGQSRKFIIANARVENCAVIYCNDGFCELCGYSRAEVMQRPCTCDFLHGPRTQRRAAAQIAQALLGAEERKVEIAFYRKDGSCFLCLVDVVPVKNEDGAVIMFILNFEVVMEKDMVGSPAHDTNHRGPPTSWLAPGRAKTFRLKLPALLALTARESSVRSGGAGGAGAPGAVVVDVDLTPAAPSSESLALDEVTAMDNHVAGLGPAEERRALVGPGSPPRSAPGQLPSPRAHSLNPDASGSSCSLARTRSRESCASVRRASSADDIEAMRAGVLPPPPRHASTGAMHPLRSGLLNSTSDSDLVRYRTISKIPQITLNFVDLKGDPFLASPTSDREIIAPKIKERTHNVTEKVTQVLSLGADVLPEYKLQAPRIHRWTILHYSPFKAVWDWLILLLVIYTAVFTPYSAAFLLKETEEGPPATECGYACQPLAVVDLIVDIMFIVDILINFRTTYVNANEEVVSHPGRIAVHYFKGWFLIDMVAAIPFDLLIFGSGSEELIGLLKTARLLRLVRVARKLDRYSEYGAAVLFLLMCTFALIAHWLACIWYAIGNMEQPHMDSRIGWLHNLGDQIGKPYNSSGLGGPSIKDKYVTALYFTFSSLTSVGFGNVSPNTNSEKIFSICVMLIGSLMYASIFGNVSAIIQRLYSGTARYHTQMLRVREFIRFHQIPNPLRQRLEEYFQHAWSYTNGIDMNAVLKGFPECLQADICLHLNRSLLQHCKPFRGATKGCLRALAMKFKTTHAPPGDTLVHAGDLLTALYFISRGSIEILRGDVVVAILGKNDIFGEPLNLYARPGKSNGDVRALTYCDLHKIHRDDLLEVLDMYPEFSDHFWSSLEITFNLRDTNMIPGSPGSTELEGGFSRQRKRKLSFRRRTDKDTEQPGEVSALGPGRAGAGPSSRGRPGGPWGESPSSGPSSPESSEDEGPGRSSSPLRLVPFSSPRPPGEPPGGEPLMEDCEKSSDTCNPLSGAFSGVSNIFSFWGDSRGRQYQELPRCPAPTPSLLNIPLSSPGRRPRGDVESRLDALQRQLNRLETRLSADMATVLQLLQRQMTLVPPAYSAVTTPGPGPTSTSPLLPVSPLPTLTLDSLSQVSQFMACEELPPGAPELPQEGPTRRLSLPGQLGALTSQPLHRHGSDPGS
row,Compound,"hERG current change (%, negative = inhibition) at 10uM [%]"
1,COCC(=O)Nc1ccccc1-c1ccccc1,22.9
2,Cc1ccc(C(=O)NCCCNC(=O)c2ccco2)cn1,15.9
3,CCCC(=O)C1=C(O)C(C(=O)OC)C(C)(C)CC1=Nc1ccc(N)cc1 (stereo not shown),-33.8
4,Cc1ccc(C)c(-n2cc(CN3CCNC(=O)CC3)c(-c3ccccc3)n2)c1,-43.5
5,COC(=O)Cn1c(=NC(=O)c2ccc(Cl)s2)sc2cc(C)ccc21,30.8
6,CC(C)(C)NC(=O)C1N(c2cccnc2)C(=O)C2C(C(=O)Nc3ccccc3)C3(C)C=CC21O3 (stereo not shown),-10.5
7,COc1cc(/C=C/C(=O)N(C)c2ccccc2C(=O)O)cc(OC)c1OC,3.92
8,CN(CC(=O)NCc1ccccc1)S(=O)(=O)c1cnc[nH]1,9.43
9,COc1ccccc1CNC(=O)COC(=O)Cc1c(F)cccc1Cl,8.03
10,COc1ccc(S(=O)(=O)Nc2nc3ccccc3nc2Nc2cccc(C(=O)O)c2)cc1,8.16
11,Cc1ccc(-n2ncc3c(NCc4ccco4)ncnc32)c(C)c1,-8.98
12,CSc1cccc(NC(=S)N2CCC(N(C)C(C)C)CC2)c1,-16.2
13,COc1ccc(S(=O)(=O)Nc2nc3c(s2)CCCC3)cc1,12.4
14,O=C(COc1ccccc1Cl)NCCNC(=O)c1cnccn1,5.82
15,O=C(NCc1cccc(Cl)c1)c1ccc(CS(=O)Cc2ccc(Cl)cc2)o1 (stereo not shown),-62.1
16,CCN1C(=O)/C(=C/c2cnn(CC)c2C)SC1=S,5.73
17,COc1ccc(C(=O)N/N=C(/C)c2cccc(NC(=O)C(F)(F)F)c2)cc1,10.7
18,Cn1cnc([N+](=O)[O-])c1Sc1ccccc1,-3.21
19,CCOC(=O)n1c(=O)n(Cc2ccc(F)cc2)c2ccccc21,-36.2
20,Cc1ccc(OCC(=O)Nc2cccnc2Cl)cc1C,16.3
21,N#Cc1ccc(NC(=O)Cn2cnc(S(=O)(=O)N3CCOCC3)c2)cc1,11.9
22,Cc1cccc(NC(=O)N[C@@H](C)C(=O)O)c1,-3.03

row,Compound,"hERG current change (%, negative = inhibition) at 10uM [%]"
1,COc1ccc(-c2cc(C)no2)cc1S(=O)(=O)N1CCOc2ccc(C)cc21,18.8
2,CCOc1cc2[nH]c(=O)n(CCC(=O)N3CCN(c4ccccc4OC)CC3)c(=O)c2cc1OCC,2.3
3,COc1cccc(NC(=O)c2cnsn2)c1,3.19
4,Cc1nc(NCc2ccco2)nc2c1C(=O)CC(C)C2 (stereo not shown),-10.2
5,CO/N=C/C(C(C)=O)C(=O)Nc1ccc(Cl)cc1Cl (stereo not shown),16.1
6,C=CCNc1nc2ccccc2nc1NS(=O)(=O)c1ccc(Br)cc1,9.13
7,Cc1cc(C)cc(Nc2nc3c([nH]2)c(=O)n(C)c(=O)n3C)c1,0.688
8,COc1ccc(C(=O)Nc2cc(C)on2)cc1S(=O)(=O)N1CC(c2ccccc2)CC1=O (stereo not shown),16.8
9,CCOC(=O)c1ccc(NC(=O)CN2CCN(C(=O)C3CCCO3)CC2)cc1 (stereo not shown),9.54
10,CN(Cc1cccc(F)c1)C(=O)c1ccc(NS(=O)(=O)c2ccc3[nH]c(=O)[nH]c3c2)cc1,0.0845
11,Nc1scc[n+]1Cc1cccc2cccnc12.[Br-],-12.3
12,COc1ccc(N2CC(C(=O)Nc3nnc(SCc4cccnc4)s3)CC2=O)cc1 (stereo not shown),1.19
13,Cc1nn2c(-c3ccc(Cl)cc3Cl)nnc2s1,-7.54
14,CC/C(C)=N/Nc1nc2c(c(=O)[nH]c(=O)n2C)n1CCc1ccccc1,22.5
15,COCc1nnc(NC(=O)CCCOc2ccccc2OC)s1,9.6
16,Cc1ccccc1OCCSc1nc(N(C)C)nc(N(C)C)n1,30
17,C=CCn1c(O)c(/C=N/N2CCOCC2)c(=O)[nH]c1=S,3.15
18,COc1ccc(CNC(=O)CCCSc2ccccc2)cc1,10.2
19,O=C(O)c1ccc(N=Cc2c(O)n(Cc3ccc(F)cc3)c(=O)[nH]c2=O)cc1,2.5
20,COc1ccc(F)cc1C(=O)C1CCCN(Cc2cnc(N3CCCC3)s2)C1 (stereo not shown),-29.4
21,CC(OC(=O)c1ccc2c(=O)n3c(nc2c1)CCCCC3)C(=O)Nc1ncc(Cl)cc1Cl (stereo not shown),-6.83
22,Cc1ccc2c(c1)C1CN(C)CCC1N2C(=O)Cc1cccs1.Cl (stereo not shown),-46.9

row,Compound,"hERG current change (%, negative = inhibition) at 10uM [%]"
1,CCS(=O)(=O)CCSC1OC(COC(C)=O)C(OC(C)=O)C(OC(C)=O)C1OC(C)=O (stereo not shown),11.7
2,N#Cc1c(N)n(-c2cccc(C(=O)O)c2)c2nc3ccccc3nc12,14.6
3,Cc1ccc(C)c(NS(=O)(=O)c2cc(C(=O)NCC3CCCO3)ccc2C)c1 (stereo not shown),-47.7
4,O=C(O)c1ccc(/C=C(\c2nc3ccccc3[nH]2)c2nc3ccccc3s2)cc1,12.1
5,CCc1cc(C(=O)N2CCc3c([nH]c4ccccc34)C2c2ccc(OC)cc2F)no1 (stereo not shown),15.7
6,CCOC(=O)N1CCN(C(=O)CSc2ccc(-c3ccccc3)nn2)CC1,-12.8
7,O=C(C1=C[C@@H](c2ccc(Br)cc2)C[C@@H](OCc2ccc(CO)cc2)O1)N1CCN(Cc2ccc3c(c2)OCO3)CC1,-9.55
8,Cc1ccc(S(=O)(=O)N2CCC(NC(=O)C3CCCCC3)CC2)cc1,-3.19
9,CSCCC(NC(=O)c1ccccc1Br)C(=O)N1CCN(C(C)=O)CC1 (stereo not shown),8.22
10,CC(=O)c1ccc(NC(=O)C(C)N(C)CC(=O)Nc2ccc(Cl)cc2)cc1 (stereo not shown),-36
11,CC(Cc1cccs1)NC(=O)Nc1ccc([N+](=O)[O-])cc1 (stereo not shown),-19.5
12,CCn1c(COc2c(C)cccc2C)nnc1SCc1nc2ccccc2c(=O)[nH]1,-6.33
13,O=C(NNC(=S)Nc1cccc2ccccc12)c1cccc(Br)c1,19.1
14,Cn1nnnc1SCC(=O)N1CCN(c2ccc(Cl)cc2)CC1,-51.2
15,CCN(CC)CCNc1nc(-c2ccc(OC(F)F)cc2)c(C)s1,-77.8
16,CCOc1ccc2[nH]c(=O)c(CN(Cc3nnnn3Cc3ccccc3)CC3CCCO3)cc2c1 (stereo not shown),-34.8
17,Cc1cc(-c2c(C)[nH]n(-c3ccc(Cl)cc3)c2=O)n(-c2ccc(Cl)cc2)n1,-0.392
18,Cc1ccc(NC(=O)c2ccc3nc(N4CCOCC4)sc3c2)c(Cl)c1,6.14
19,CCc1ccc(CN2CCCC(C(=O)N3CCCCC3)C2)cc1.O=C(O)C(=O)O (stereo not shown),-42.7
20,CCC1SC2=NCN(c3ccccc3)CN2C1=O (stereo not shown),0.517
21,O=C(O)CCCC(=O)Nc1cccc([N+](=O)[O-])c1,30.2
22,CCOCCCNCC(=O)Nc1ccc(S(=O)(=O)NC(C)CC)cc1.O=CO (stereo not shown),9.28

row,Compound,"hERG current change (%, negative = inhibition) at 10uM [%]"
1,CCOC(=O)C1CCCN(C(=O)C(C)Oc2ccc(Cl)cc2Cl)C1 (stereo not shown),-9.02
2,COc1ccc(Cn2nnnc2CN2CCc3ccccc3C2)cc1.Cl,-15.3
3,Cc1cccc(C)c1-n1nnnc1SCSc1nnnn1-c1c(C)cccc1C,3.64
4,CCn1c(SCC(=O)N2CCc3ccccc3C2)nc2sc(C)c(C)c2c1=O,8.65
5,N#Cc1c2ccc(O)cc2n2ccccc12,25.7
6,Nn1c(SCC(=O)Nc2nc3ccccc3s2)nncc1=O,6.66
7,CC1C(C)C(O)(c2ccccc2)CCN1C (stereo not shown),9.94
8,COc1ccc(CCNC(=O)C(=O)NCC2OCCN2C(=O)c2ccc(Cl)cc2)cc1OC (stereo not shown),-10.9
9,Cc1ccccc1Oc1ncnc2sccc12,-14.7
10,COc1ccccc1NC(=O)Cn1nnc(-c2ccccc2NC(=O)c2cnccn2)n1,8.23
11,COCCC(=O)N1CCC(n2nccc2NC(=O)c2ccccc2C)CC1,12.6
12,Cc1c(Cc2ccccc2)c(NCCN(C)C)n2c(nc3ccccc32)c1C#N,-32.4
13,Cc1c(C(=O)NC(=S)NCC(C)C)oc2ccccc12,19.6
14,CCOc1ccc(C(=O)NCc2ccc3c(c2)OCO3)cc1,8.82
15,O=C(Nc1ccc2c(c1)OCCO2)c1cc(F)c(F)cc1Cl,6.91
16,Cc1ccccc1-c1nc(-c2ccc(NC(=O)c3cccs3)cc2)no1,15.6
17,CC(C)OC(=O)C1CC(C)(O)C(=O)C(C(=O)OC(C)C)C1c1ccc([N+](=O)[O-])cc1 (stereo not shown),3.15
18,Cn1cnc(S(=O)(=O)Nc2ccc(Cl)c(C(F)(F)F)c2)c1,13.7
19,CCOC(=O)COc1ccccc1/C=C1/NC(=O)NC1=O,-3.68
20,Cc1cc(N2CCOCC2)ccc1/C=C1\NC(=O)N(Cc2ccccc2)C1=O,18.5
21,CCOC(=O)C(=CNc1ccccc1C)C(=O)OCC,-2.33
22,COc1cc(/C=N/NC(N)=O)ccc1OCC(=O)Nc1cc(C)c(C)cc1Br,41.7
